In PubChem BioAssay AID1508624 (National Center for Advancing Translational Sciences (NCATS), 2021):
The campaign covered roughly 48,000 compounds. About 120 (0.25%) were called active. Not shown: some 4% with an inconclusive outcome. Calls come from the whole dose curve; as a rule, active = well fitted activation curve with a large enough effect; inconclusive = small, poorly fitted or top-dose-only effect, or another doubt; inactive = no such curve, though single readings can be large or run the other way. The list shows a part of the results.

assay: Primary qHTS for Identification of Small Molecule Activators of Huntingtin-Antisense Promoter Activity; conditions: HEK293 HTT-AS promoter firefly luciferase reporter, 24 h; series mostly up to 57.5 µM; activity change, positive = activation: at the top concentration; note: nearly all actives have a fitted effect of over 55% in size
Summary of the method: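 HEK293 luciferase promoter-reporter cells (2,500/well) plated 24 h, then compounds added at up to 57.5 uM final for 24 h at 37 °C. Firefly luminescence by Dual-Glo, normalized to vehicle (0%) and zero RLU (-100%).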

| SMILES | activity change, positive = activation |
| --- | --- |
| COc1cccc(-c2ccc3c(N)c(C(=O)c4ccc(Cl)cc4)sc3n2)c1 | inactive: -15.9% |
| CCC(C)NC(=O)Cn1ncc2c([nH]c3ccc(C)cc32)c1=O (configuration not stated) | inactive: -24.6% |
| CCOc1ccccc1NC(=O)Cn1c(=O)n(Cc2ccccc2)c(=O)c2c(C)c(C)sc21 | inactive: -11.5% |
| CCc1cccc(NC(=O)Cn2nc(-c3ccc(OC)cc3)ccc2=O)c1 | inactive: -4.9% |
| O=C(Nc1nc2n(n1)C(c1ccccc1)C=C(c1ccccc1)N2)c1ccc(Cl)c([N+](=O)[O-])c1 (configuration not stated) | inactive: -9.8% |
| CCOC(=O)c1ccc(N2C(=O)c3n[nH]c(-c4cccs4)c3C2c2ccc(C(C)(C)C)cc2)cc1 (configuration not stated) | inactive: -23.2% |
| CCOC(=O)c1[nH]c(C)c(CCC(=O)NCc2ccc(OCC)cc2)c1C | inactive: -6.98% |
| Cc1ccc(NC(=O)c2c(C)oc3ccc(O)c(CN4CCCCCC4)c23)c(C)c1 | inactive: -22.8% |
| CC(C)OCCCNC(=O)c1cc2c(-c3ccc(Cl)cc3)nn(C)c2s1 | inactive: -38.3% |
| COc1cc(NC(=O)C2CCCN(S(=O)(=O)c3ccc4c(c3)oc(=O)n4C)C2)c(C(=O)O)cc1OC (configuration not stated) | inactive: -3.85% |
| CCCCC(Sc1nc2cc3c(cc2c(=O)n1CCCC(=O)NCc1ccc(OC)cc1)OCO3)C(=O)OCC (configuration not stated) | inactive: -22.9% |
| CC(C(=O)NCc1ccccc1F)n1ccc2cc(S(=O)(=O)N3CCCC3)ccc21 (configuration not stated) | inactive: -4.92% |
| CCOc1ccccc1NC(=O)c1c(NC(=O)c2cccc(C)c2)sc2c1CCCC2 | inactive: -12.5% |
| CCc1ccccc1NC(=O)Nc1cc(C(=O)NCc2ccc(C)cc2)ccc1N1CCCC1 | inactive: 3.25% |
| CC1CN(C(=O)Nc2ccc(C(=O)NCc3cccc(F)c3)cc2)c2ccccc2S1 (configuration not stated) | inactive: -14.7% |
| O=C(Nc1ccccc1Cl)N1CCC(CN2CCCCC2)CC1 | inactive: 6.87% |
| O=C(Nc1ccc(C(F)(F)F)cc1)C1CCCN(c2cnccn2)C1 (configuration not stated) | inactive: -11% |
| O=c1c(S(=O)(=O)c2ccccc2)cn(Cc2ccccc2)c2cc(N3CCOCC3)c(F)cc12 | inactive: -29.8% |
| C[C@H]1[C@H]2CC[C@H]3[C@@H]4CC=C5C[C@@H](N(C)C)CC[C@]5(C)[C@H]4CC[C@]23CN1C | inactive: -12.9% |
| COc1ccc(Nc2ncc3c(n2)CCN(Cc2cc(Br)cs2)C3)c(OC)c1 | inactive: -5.6% |
| CC(C)C(=O)c1c(C(C)C)nn2ccccc12 | inactive: -3.92% |
| COc1ccccc1NC(=O)c1cc2c(=O)oc3ccc(C)cc3c2s1 | inactive: -11.9% |
| Cc1ccc(NC(=O)CSc2nc3c(oc4ccccc43)c(=O)n2-c2ccc(F)cc2)c(C)c1 | inactive: -27.4% |
| CCCCOc1ccccc1C(=O)N(Cc1ccc(C)o1)C1CCS(=O)(=O)C1 (configuration not stated) | inactive: -9.72% |

| SMILES | activity change, positive = activation |
| --- | --- |
| O=C(O)CSc1c2c(nc3cc(C(=O)Nc4ccc(F)c(Cl)c4)ccc13)CCC2 | inactive: -30.8% |
| Cn1nc(-c2ccc(C(=O)Nc3ccc(F)cc3)cc2)c2ccccc2c1=O | inactive: -43% |
| COCCCNC(=O)CCCCn1c(=O)c2ccccc2n(CC(=O)Nc2ccc(C)cc2C)c1=O | inactive: -23% |
| C=Cc1ccc(Cn2nc(-c3ccc(C)c(S(=O)(=O)N(CC)CC)c3)ccc2=O)cc1 | inactive: -21.2% |
| COc1ccc2cc(-c3nc4ccc(C(=O)O)cc4[nH]3)c(=O)oc2c1 | inactive: -79.7% |
| Cc1cccn2c(=O)c3cc(C#N)c(=O)n(-c4nnc(SCc5ccccc5F)s4)c3nc12 | inactive: -0.155% |
| CC(C)c1ccc(S(=O)(=O)NCc2ccc3c(c2)CCN3C(=O)c2ccccc2)cc1 | inactive: -27.4% |
| COCCNC(=O)CSc1nc2cc3c(cc2c(=O)n1CCCCCC(=O)NCc1ccc(OC)cc1)OCO3 | inactive: -5.88% |
| COc1ccc(CNC(=O)c2ccc3c(c2)nc2n3CCC(C)C2)c(OC)c1 (configuration not stated) | inactive: 5.45% |
| CCOc1ccccc1NC(=O)Cn1nnc2sc(-c3ccccc3)cc2c1=O | inactive: -12.9% |
| CCSc1ncc(Cl)c(C(=O)Nc2ccc(S(=O)(=O)N(C)c3ccccc3)cc2)n1 | inactive: -23.3% |
| CCCSCCCNC(=O)c1ccc2nc(Cc3ccccc3)oc2c1 | inactive: -11% |
| Cc1cc(Nc2cccc(Cl)c2)nc2ccc(NC(=O)c3cccnc3)cc12 | inactive: -60.1% |
| CCc1ccc(CNC(=O)CN2CCSc3ccccc32)cc1 | inactive: -11.8% |
| Cc1ccc(NC(=O)C(=O)NCC2(c3ccccc3)CCCC2)cc1Cl | inactive: 10.7% |
| O=C(NCCc1ccccc1)c1cnn(-c2ccc(F)cc2)c1-n1cccc1 | inactive: -25.7% |
| CCOC(=O)N1CCc2c(sc3c2c(=O)n(CCc2ccccc2)c(=O)n3Cc2c(F)cccc2Cl)C1 | inactive: -7.63% |
| Cc1ccc(NC(=O)CSc2nc3n[nH]c(C)c3c(=N)n2-c2cccc(C)c2)cc1 | inactive: -40.7% |
| O=C(CN1C(=O)COc2ccc(S(=O)(=O)N3CCCCCC3)cc21)NCc1ccc(F)cc1 | inactive: -16.7% |
| COc1ccc(N2CCN(c3oc(/C=C/c4cc(OC)c(OC)c(OC)c4)nc3C#N)CC2)cc1 | inactive: -14.3% |
| COc1cc(C(=O)Nc2ccc3oc(-c4ccc(C)c(Br)c4)nc3c2)cc(OC)c1OC | inactive: 22.6% [at 11.5 µM, percent change from vehicle, -100% = no light] |
| Cc1cc(C)cc(Oc2nc3c(c(=O)n(C)c(=O)n3C)n2Cc2ccc(F)cc2)c1 | inactive: 3.58% |
| COc1ccc(F)cc1S(=O)(=O)NCCc1sc2nc(-c3ccc(F)cc3)nn2c1C | inactive: -19.1% |
